From patent US11351161B2, “Use of CDK9 inhibitors to reduce cartilage degradation” (THE REGENTS OF THE UNIVERSITY OF CALIFORNIA, priority 2011, dated 2022)
Where two headings read alike, the source gives them in different places.

Columns and labels:
[1] = system: human cartilage explants; assay: Col2a cleavage peptide release from IL-1β-treated human cartilage explants (C2C ELISA); type: cell-based; conditions: 6 nM, 1 ng/ml IL-1β, 6 days
Description: The amount of glycosaminoglycan (GAG) released into the media was determined by the colorimetric dimethylmethylene blue dye-assay, with chondroitin sulfate as standard (Farndale, et al., Biochim Biophys Acta 883:173-177). The release of Col2a degradation products into the media was determined by measuring the amount of cleaved Col2a peptides (Poole, et al., J Immunol Methods (2004) 294:145-153.) with the […] ELISA kit (IBEX Pharmaceuticals) according to the manufacturer's protocol.

[2] = system: chondrocytes in cartilage explants; conditions: after simulated injury with IL-1β
[3] = system: NFκB-target primary inflammatory response genes; assay: PCR array for NFκB targets in IL-1β-treated primary human chondrocytes; type: cell-based; conditions: 300 nM, 10 ng/ml IL-1β
[4] = system: rheumatoid arthritis, synovial hyperplasia; conditions: mouse, systemic administration, cited from earlier work

CN1CC[C@H](c2c(O)cc(O)c3c(=O)cc(-c4ccccc4Cl)oc23)[C@H](O)C1 [Flavopiridol, 2-(2-chlorophenyl)-5,7-dihydroxy-8-[(3 S,4R)-3-hydroxy-1-methyl-4-piperidinyl]-4-chromenone]
Col2a peptides released into the media [1]: reduced | number of dead or dying cells in cartilage explants [2]: strongly reduced | repression of IL-1β-dependent inflammatory response gene transcription (IL-6) [3]: 99.2% | effects of IL-1β on NFκB-target genes ([3]; 5 hours, listed as flavopiridol): almost completely abolishes | IL-1β-induced expression of IL-6 in the presence of flavopiridol ([3]; 492-fold with IL-1β alone): 4.2 fold | rheumatoid arthritis [4]: prevented rheumatoid arthritis | synovial hyperplasia [4]: reduced synovial hyperplasia | rheumatoid arthritis ([4]; listed as flavopiridol): effectively prevented rheumatoid arthritis
